The target of series [1] is Cytochrome P450 (CYP450) (Homo sapiens, UniProt P08684). The series is described as follows: Cytochrome P450 inhibition profile. The following applies: Measured. In kind it is in vitro ADME. Here is the method: The P450 inhibition profile of the inhibitors was determined as previously described.
The nature of series [2]: ChromlogD assay. Here is the method: The Chromatographic Hydrophobicity Index (CHI)[22] values were measured using reversed phase HPLC column (Luna C18 (2), Phenomenex, UK) with a fast acetonitrile gradient at starting mobile phase of pH = 7.4. CHI values are derived directly from the gradient retention times by using a calibration line obtained for standard compounds. The CHI value approximates to the volume % organic concentration when the compound elutes. […] The average error of the assay is ±3 CHI unit or ±0.25 ChromlogD.

Series [3] in a line: CLND kinetic solubility assay. Type of series: physicochemical. The following applies: phosphate buffered saline, pH 7.4, aqueous buffer, kinetic from dmso stock; Measured; read-out: Aq Sol. Here is the method:
5 µL of 10 mM DMSO stock solution was diluted to 100 µL with pH 7.4 phosphate buffered saline, equilibrated for 1 hour at room temperature, filtered through Millipore MultiscreenHTS-PCF filter plates (MSSL BPC). The filtrate was quantified by suitably calibrated flow injection Chemi-Luminescent Nitrogen Detection.

Series [4] deals with T. brucei brucei parasites (Lister 427 strain). Nature of the series: Dose response growth inhibition assay (resazurin, 72 h). Type of series: cell-based. The following applies: Trypanosoma brucei. On the procedure:
Greiner sterile black clear bottom 384-well assay plates were pre-dispensing with 200 nL of compound in each well, from master plates at 1 mM (100% DMSO) containing selection from the GSK compound collection. Controls of 0% response (control 1, 200 nL of 100%DMSO) and 100% response (control 2, 200 nL of 1 mM pentamidine) were included in each assay plate in columns 6 and 18, respectively. Plates containing 200 nL of 100% DMSO were included randomly in the assay, to assess quality through all process. […] After this period, 10 µL of 200 µM resazurin solution in prewarmed HMI-9 were added to each well, and plates were allowed to incubate 2 hours more prior fluorescence reading in a Wallac EnVision Multilabel Plate Reader (Perkin-Elmer). Raw fluorescent data from the Envision plate reader were uploaded into GSK HTS database (ActivityBase). Activity of each well was normalized as a percentage of inhibition per-plate basis using the following equation: [drawing 1]
For dose-response experiments, serial compound dilutions of selected hits from the primary campaign were plotted against compound concentration. Dose response master plates were prepared by 3-fold dilutions (starting with 10 mM DMSO stock solutions), providing 11 concentrations. From these master plates, 200 nL per well was stamped in final assay plates, including the same controls describe in the primary single shot assay. Compounds were dispensed as serial dilution curve format, with 11 points at 3-fold dilution and 40 µM as starting top concentration (n = 2). Growth inhibition assay was performed as described in previous assay.
A 4-parameter equation describing a sigmoidal dose-response curve was then fitted with an adjustable baseline using ActivityBase XE Runner software. Fitting of dose-response curves and EC50 determination were normalized as percentage of inhibition based on controls. The curve-fit model was based on a 4-parameter equation: [drawing 2]
Trypanosome cell culture. […]
Background: The colour change of resazurin is a common sign of viable cells or microbes.

Where [5] appears, read: CYP3A4, VG substrate, read-out: CYP3A4VG pXC50 (converted).
Where [6] appears, read: CYP3A4, VR substrate, read-out: CYP3A4VR pXC50 (converted).
Where [7] appears, read: T. b. brucei growth inhibition, read-out: Tbb pEC50 (converted).

Values after ≈ are worked out from the molar mass of the structure shown. Read-outs that look alike come from different tables or passages of the source.

For the molecule `Cn1cc(-c2ccc3nc(-c4cc(-c5cccc(CCN6CCOCC6)c5)cnc4N)[nH]c3c2)cn1` [NEU-0001121], the IC50 in series [1] (setting [5]) is 3.16 µM; in series [1] (setting [6]) it was 7.94 µM. The molecule also showed a PFI in series [2] of 8.61. For the same molecule, the solubility kinetic at 1 h in series [3] is 2 µM (≈ 0.959 µg/mL).
`Cc1[nH]nc(Nc2ccnc3[nH]ccc23)c1C` [NEU-0001225]: the EC50 in series [4] (read-out: T brucei pEC50 (converted)) was 0.126 µM.
In turn, `Nc1ncnc2cc(-c3cccc(NC(=O)c4ccncc4)c3)sc12` [NEU-0001120] gave a PFI in series [2] of 7.25. Also, the EC50 in series [4] (setting [7]) was 0.126 µM.
`O=C(N[C@H](CO)c1ccccc1)c1ccc2cncc(-c3cn[nH]c3)c2n1` [NEU-0001114]: the IC50 is 10 µM in series [1] (setting [5]) and 7.94 µM in series [1] (setting [6]). The same molecule gave a PFI in series [2] of 6.2. In addition, the solubility kinetic at 1 h in series [3] was determined as 4 µM (≈ 1.44 µg/mL). The EC50 in series [4] (setting [7]) was 0.631 µM.
In series [2], `COCc1cc(-c2cc3c4c(n[nH]c4c2)Nc2ccccc2O3)nc(N)n1` [NEU-0001117] yielded a PFI of 5.73.

The values above are taken from article PMC4207660, “Identification and Characterization of Hundreds of Potent and Selective Inhibitors of Trypanosoma brucei Growth from a Kinase-Targeted Library Screening Campaign” (PLoS Neglected Tropical Diseases, 2014).
